# Test results from PMC4336329 (PLoS ONE, 2015).
# Screen size: about 310,000 compounds; about 14,000 (4.5%) showed an effect of 50% or more. Effects have a minus sign here. The list shows a part of the results.
# Target: human ether-à-go-go-related gene (hERG) potassium channel (human, UniProt Q12809)
# Test: primary screen, population patch clamp on CHO cells stably expressing hERG
# 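Note: peak tail current of the secondary pulse compared with the same well before compound.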
# Chain of human ether-à-go-go-related gene (hERG) potassium channel (Q12809 whole entry, looked up): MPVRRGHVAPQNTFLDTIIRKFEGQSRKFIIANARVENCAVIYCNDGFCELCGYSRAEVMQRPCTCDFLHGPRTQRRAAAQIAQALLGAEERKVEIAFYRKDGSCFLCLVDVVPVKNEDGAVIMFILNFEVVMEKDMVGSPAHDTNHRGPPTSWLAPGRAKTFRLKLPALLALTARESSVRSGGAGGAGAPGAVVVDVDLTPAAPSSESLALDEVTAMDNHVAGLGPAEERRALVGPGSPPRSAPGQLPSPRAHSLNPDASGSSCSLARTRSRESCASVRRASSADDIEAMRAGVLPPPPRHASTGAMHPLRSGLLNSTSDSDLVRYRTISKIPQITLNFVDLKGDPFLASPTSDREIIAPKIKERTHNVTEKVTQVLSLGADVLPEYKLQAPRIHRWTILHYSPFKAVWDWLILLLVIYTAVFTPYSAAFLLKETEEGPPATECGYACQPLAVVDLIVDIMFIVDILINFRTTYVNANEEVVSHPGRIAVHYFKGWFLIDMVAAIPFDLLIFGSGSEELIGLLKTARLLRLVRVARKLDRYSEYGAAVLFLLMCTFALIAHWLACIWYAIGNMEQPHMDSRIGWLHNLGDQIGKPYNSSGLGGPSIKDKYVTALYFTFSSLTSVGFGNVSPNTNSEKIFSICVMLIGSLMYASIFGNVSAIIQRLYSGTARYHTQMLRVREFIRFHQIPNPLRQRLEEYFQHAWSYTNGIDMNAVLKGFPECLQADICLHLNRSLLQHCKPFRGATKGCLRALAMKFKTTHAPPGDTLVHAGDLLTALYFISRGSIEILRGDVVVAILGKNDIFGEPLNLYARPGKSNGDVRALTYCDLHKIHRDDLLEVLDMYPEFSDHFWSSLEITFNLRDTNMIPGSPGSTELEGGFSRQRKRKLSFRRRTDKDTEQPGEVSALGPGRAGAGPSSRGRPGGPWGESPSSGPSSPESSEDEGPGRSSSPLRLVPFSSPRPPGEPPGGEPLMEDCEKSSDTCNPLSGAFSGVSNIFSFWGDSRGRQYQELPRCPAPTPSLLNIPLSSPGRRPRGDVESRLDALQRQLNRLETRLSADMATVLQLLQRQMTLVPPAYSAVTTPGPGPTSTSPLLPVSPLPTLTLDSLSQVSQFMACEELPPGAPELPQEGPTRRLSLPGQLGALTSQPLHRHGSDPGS
row,SMILES,"hERG current change (%, negative = inhibition) at 10uM"
1,C[C@H]1CN=C(N(C)C)N1CCc1ccccc1,6.72%
2,CCOc1ccc(-c2c(C(=O)N/N=C/c3ccc(C)s3)nnn2-c2nonc2N)cc1,9.87%
3,O=C(c1ccco1)N1CCN(C(=O)c2cc3ccccc3oc2=O)CC1,-13.2%
4,Cc1nonc1-c1nc(-c2nonc2N)n[nH]1,13.1%
5,Cc1cc(C(=O)O)ccc1-c1ccc(/C=N/n2cnnc2)o1,12.8%
6,CCOC(=O)C1=C(C)Nc2ccccc2N/C1=N\S(=O)(=O)c1cc(C(=O)O)ccc1Cl,6.36%
7,O=C(CSc1nccn1-c1ccc(F)cc1)NCc1ccc(F)cc1,-8.5%
8,COc1ccc(OCC(NS(=O)(=O)c2ccc(-n3cnnn3)cc2)C(C)C)cc1 (centres unmarked),-52.2%
9,CCc1ccc(NC(=O)C(=O)NNC(=O)COc2cccc(OC)c2)cc1,0.332%
10,Nc1c(-c2ccccc2)c(CN2CCOCC2)nn1-c1cccc([N+](=O)[O-])c1,-19.4%
11,CCOc1cc(C2C3=C(CC(C)(C)CC3=O)Nc3n[nH]c(C)c32)ccc1O (centres unmarked),15.5%
12,O=C(NCCc1ccccc1)C(=O)NCC1CCCN1S(=O)(=O)c1ccccc1 (centres unmarked),-41.9%
13,Cc1ccccc1-n1c(=S)[nH]c2nc3c(cc2c1=O)COC(C)(C)C3,21.3%
14,CCc1ccc[n+](-c2[nH]c(=O)sc2/C=N/N=C(\[O-])c2ccncc2)c1,18.8%
15,NC(=O)CSc1ccc(F)cc1,44%
16,CC1CCN(Cc2c(C(=O)N/N=C/c3cccc(Cl)c3)nnn2-c2nonc2N)CC1,11.8%
17,CCOC(=O)C(C(C)=O)C(c1ccc(OCCC(C)C)cc1)C(C(C)=O)C(=O)OCC (centres unmarked),-0.629%
18,CCCC(=O)Nc1cc(OCC)c(NC(=O)NC2CCCCC2)cc1OCC,0.375%
19,O=C(CNS(=O)(=O)c1ccc(Cl)cc1)NC1CCCCC1,-11%
20,CCOC(=O)N1CCN(C(=O)CN(c2cccc(OC)c2)S(C)(=O)=O)CC1,-5.17%
21,CC1CCN(S(=O)(=O)c2ccc3ncn(CC(=O)N(C)C4CCCCC4)c(=O)c3c2)CC1,-22.2%
22,O=C1C=C(NCc2ccco2)CC(c2ccc(Cl)cc2)C1 (centres unmarked),-61.5%

row,SMILES,"hERG current change (%, negative = inhibition) at 10uM"
1,Cc1ccccc1C(=O)Nc1cccc(NC(=O)c2ccc(-c3ccc(Br)cc3)o2)c1,16.7%
2,O=C(CC1(O)C(=O)N(Cc2ccc3c(c2)OCO3)c2ccccc21)c1ccccc1 (centres unmarked),8.9%
3,COC(=O)c1ccc(NC2(C#N)C(=O)Nc3ccccc32)cc1 (centres unmarked),21.9%
4,Fc1cccc(-n2ncc(-c3nnnn3-c3ccccc3)c2C(F)(F)F)c1,-16.1%
5,O=C(NNC(=O)c1cccs1)Nc1cccc(Cl)c1,1.56%
6,Cl.O=C(CN1CCN(C2CCCCC2)CC1)Nc1cccc2ccccc12,-31.2%
7,Br.O=C(CN1CCCCC1)c1ccccc1Cl,-3.23%
8,CN(C)S(=O)(=O)c1cccc(C(=O)N(Cc2ccc(F)cc2)Cc2ccco2)c1,-52.3%
9,COc1ccc(C(CNC(=O)c2cccc(NS(=O)(=O)c3ccc(Br)cc3)c2)N(C)C)cc1 (centres unmarked),-61.5%
10,COc1ccc(NC(=O)C2CCN(S(=O)(=O)c3cccc4nonc34)CC2)c(OC)c1,0.758%
11,COc1cc(OC)c(NC(=O)CCc2nc(-c3cccs3)no2)cc1Cl,1.63%
12,O=C(CSc1nnc(-c2cccs2)n1Cc1ccccc1)NCc1ccc2c(c1)OCO2,-75.8%
13,O=C(CN1C(=O)NC2(CCCC2)C1=O)OCCOc1ccc(Br)cc1,-17.6%
14,NC(N)=N/N=C/c1cn(-c2ccccc2)nc1-c1cccs1.O=[N+]([O-])O,-62.1%
15,NS(=O)(=O)c1ccc(CNC(=S)NC2CCCCC2)cc1,7.06%
16,COc1cc(N2N=C(c3ccccc3)CC2c2ccccc2)c(C=O)cc1C=O (centres unmarked),20.5%
17,Cc1noc(C)c1CN(C(=S)NC(C)C)c1ccccc1,22.4%
18,CNS(=O)(=O)Cc1ccc2[nH]cc(CCN(C)C)c2c1,10.6%
19,COC(=O)[C@]1(CC(C)C)N[C@H](c2ccc(-c3ccc(F)cc3)c(OC)c2)[C@@H]2C(=O)N(C)C(=O)[C@@H]21.O=C(O)C(F)(F)F,-43.3%
20,O=C(CN1C(=O)c2ccccc2C1=O)N1CCN(S(=O)(=O)c2ccccc2)CC1,-3.47%
21,CCc1nc(N2CCN(C(C)=O)CC2)c2c3c(sc2n1)CCCC3,-20.1%
22,O=C(c1ccco1)N1CCN(S(=O)(=O)N2CCOCC2)CC1,-1.91%
